# According to PubChem BioAssay AID1347120 (National Center for Advancing Translational Sciences (NCATS), 2019):
# In all, about 390,000 compounds went through this assay and about 930 (0.24%) were called active. The inconclusive results got no clear call from the source; some entries with a clear call stand among them for comparison. Calls come from the whole dose curve; as a rule, active = well fitted activation curve with a large enough effect; inconclusive = small, poorly fitted or top-dose-only effect; inactive = no such curve, though single readings can be large or run the other way. A potency beside an inconclusive call is a rough fit, not a confirmed value.
# Experiment: qHTS for Suppressors of FUS Proteinopathy: Primary screen using FUS-linked yeast assay; note: nearly all actives have a fitted effect of over 55% in size;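 for growth rescue (activation): plate controls were DMSO vehicle for no effect and reference control for full effect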
# Settings: S. cerevisiae FUS-expressing, OD600, 24 h; Potency: growth rescue; growth rescue (activation): at 76.6 µM (top of the series)
# How it was run: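 S. cerevisiae expressing FUS from galactose induction served as the toxicity model. Growth after 24hr at 30C, read as absorbance at 600 nm, indicates suppression of toxicity; compounds dosed at several concentrations.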
# Potency is the fitted concentration of half-maximal effect; tags give direction and shape of the fitted curve.
Structure (SMILES),Potency,growth rescue (activation)
COc1cc(C(=S)N2CCOCC2)cc(OC)c1OS(=O)(=O)c1ccc(Cl)cc1,"inconclusive: 5.01 µM [activator, single point]",
Cc1cccc(C)c1NC(=O)C(=O)NCC(c1ccc2c(c1)OCO2)N1CCOCC1 (centres undefined),inactive,
Cc1cccc(N2C(=O)C(O)=C(C(=O)c3cccs3)C2c2ccccc2)n1 (centres undefined),"inconclusive: 31.6 µM [activator, single point]",
CCOc1cc(CNC(C)C)c(Cl)cc1OCC(=O)NCCc1ccccc1,"inconclusive: 4.47 µM [activator, full curve]",
C#CCN1C(=O)[C@@](O)(c2cccn2C)c2cc(F)ccc21,inactive,
Cc1ccc(Cl)cc1NC(=S)N(Cc1cccnc1)Cc1ccccc1Cl,"inconclusive: 14.1 µM [activator, partial curve, poor fit]",
COc1ccc(C(=O)Nc2ccc(N3CCN(C(=O)c4ccccc4)CC3)cc2)cc1[N+](=O)[O-],"inconclusive: 11.2 µM [activator, partial curve]",
CC1CCCCC1NC(=O)CSc1nnc(-c2ccco2)n1N (centres undefined),"inconclusive: 2.24 µM [activator, full curve]",
CCOc1ccc2c(c1)sc1nc(=O)n(-c3ccc(Cl)c(Cl)c3)c(=O)n12,inactive,
CCOC(=O)[C@@]12CCCC3=C1N(CCC3)C(=O)[C@H]2CC(=O)NCC1CCCCC1,inactive,
CCOC(=O)CC[C@@H]1CC[C@]2(CCCN(Cc3nccs3)C2)O1,inactive,
COc1ccc(OC)c(S(=O)(=O)n2c(CN3CCOCC3)nc3ccccc32)c1,inactive,
Cc1cccc(Cl)c1NC(=S)NN,"inconclusive: 31.6 µM [activator, partial curve]",
CCOc1ccc(/C=C2/C(=O)N(c3ccc(OC)cc3)C(=S)N2CC(=O)OC)cc1OCC,"inconclusive: 44.7 µM [activator, single point]",
CCc1ccc(C2c3c(oc4ccc(F)cc4c3=O)C(=O)N2CCc2ccc(OC)cc2)cc1 (centres undefined),inactive,
O=C(NC1CC2CCCC(C1)N2C(=S)Nc1ccc(Cl)cc1)C1CC1 (centres undefined),"inconclusive: 2.24 µM [activator, full curve]",
O=C(N/N=C\c1ccc([N+](=O)[O-])s1)C1COc2ccccc2O1 (centres undefined),inactive,
Cc1ccc(-n2nc3ccc(N)cc3n2)cc1,"inconclusive: 1.26 µM [activator, full curve, poor fit]",
COc1ccc(S(=O)(=O)N2CCN(c3nc(-c4cccnc4)nc4ccccc34)CC2)cc1,"inconclusive: 35.5 µM [activator, single point]",
Cc1cccc(OCc2nc(CC(=O)Nc3ccc(C)cc3C)cs2)c1,inactive,
Cc1ccc(-c2cc(C(=O)OCC(=O)N(C)c3c(N)n(Cc4ccccc4)c(=O)[nH]c3=O)c3ccccc3n2)o1,inactive,
Cc1cccc(NC(=O)CCCn2c(=S)[nH]c3ccccc3c2=O)c1,"inconclusive: 5.62 µM [activator, single point]",

Structure (SMILES),Potency,growth rescue (activation)
CSc1nc(SCC(=O)NCC2CCCO2)c2c3c(sc2n1)CN(C)CC3 (centres undefined),"inconclusive: 20 µM [activator, partial curve, poor fit]",
COc1cc(-c2cc(C(F)(F)F)n3ncc(C(=O)O)c3n2)cc(OC)c1OC,"inconclusive: 31.6 µM [activator, single point]",
CCOC(=O)C1=C(c2ccccc2)N=c2s/c(=C\c3ccc(O)cc3)c(=O)n2C1c1cccs1 (centres undefined),"inconclusive: 15.8 µM [activator, partial curve, poor fit]",
Cc1ccc(Cn2nc(C)c(NC(=O)C3CC3)c2C)cc1,"inconclusive: 31.6 µM [activator, partial curve]",
CC1=C(C(=O)Nc2ccccc2)C(c2ccc(C)cc2)N=C(Nc2nc3ccccc3o2)N1 (centres undefined),inactive,
C[C@]12c3[nH]c4ccc(Cl)cc4c3CCN1C(=O)[C@@H](CC(=O)NCc1cccc(C(F)(F)F)c1)C[C@@H]2C(=O)N1CCOCC1,"inconclusive: 31.6 µM [activator, single point]",
Cc1ccc(CN(Cc2cc3cc4c(cc3[nH]c2=O)OCCO4)Cc2nnnn2Cc2ccco2)cc1,"inconclusive: 15.8 µM [activator, partial curve]",
COC(=O)[C@]12CCCCC=C1N(CCC1=CCCCC1)C(=O)[C@H](CC(=O)NCCc1ccccc1OC)C2,"inconclusive: 31.6 µM [activator, single point]",
CCOC(=O)c1cccc(NC(=O)CC2C(=O)N(c3ccc(Cl)cc3)C(=O)N2C2CCCC2)c1 (centres undefined),"inconclusive: 50.1 µM [activator, single point]",
CCn1c(CNC(=O)C2CCCCC2)cc2ccccc21,inactive,
CCOc1cc(/C=C2\SC(=S)N(Nc3ccccc3)C2=O)ccc1O,inactive,
COc1cc(/C=N/NC(=O)COc2ccc(Cl)cc2)ccc1OS(=O)(=O)c1ccc(C)cc1,"inconclusive: 44.7 µM [activator, single point]",
Cc1ccc(S(=O)(=O)NCc2ccccn2)cc1C,"inconclusive: 50.1 µM [activator, single point]",
COc1cc(C(=O)OCC(=O)c2ccc(S(=O)(=O)N3CCCCC3)cc2)cc(OC)c1OC,inactive,
Cc1ccc(S(=O)(=O)CCC(=O)Nc2ccc(OC(F)(F)F)cc2)cc1,inactive,
COc1ccccc1C1(O)CCN(CC(=O)Nc2nc(-c3ccccc3)cs2)CC1,inactive,
O=C(Cn1nnc(-c2ccccc2)c1COc1ccc2ccccc2c1)NCC1CC1,"inconclusive: 28.2 µM [activator, partial curve, poor fit]",
COC(=O)[C@]12CCCCC=C1N(Cc1ccc(Cl)cc1Cl)C(=O)[C@H](CC(=O)NCc1ccc(C)o1)C2,"inconclusive: 39.8 µM [activator, single point]",
CCOC(=O)N1CCN(C(=O)C[C@H]2C[C@@]3(C(=O)OC)C(=C[C@H](C(C)C)O[C@@H]3C3CC3)N(Cc3ccc(Cl)cc3Cl)C2=O)CC1,"inconclusive: 15.8 µM [activator, partial curve, poor fit]",
Cc1ccc(S(=O)(=O)N/N=C/c2ccc(OCC(=O)Nc3ccccc3Cl)cc2)cc1,"inconclusive: 22.4 µM [activator, single point]",
Cc1cc(C)c(NC(=O)C2CC(=O)N(c3ccc4c(c3)OCCO4)C2)c(C)c1 (centres undefined),"inconclusive: 50.1 µM [activator, partial curve, poor fit]",
Cn1c(=O)c2cc(S(=O)(=O)N3CCN(CCO)CC3)ccc2n(C)c1=O,inactive,

Structure (SMILES),Potency,growth rescue (activation)
Cc1ccc2nc(N3CCN(S(=O)(=O)c4ccc(C)c(Cl)c4)CC3)c(C#N)cc2c1,"inconclusive: 22.4 µM [activator, partial curve, poor fit]",
Cn1cccc1-c1cc(C(=O)N2CCc3c([nH]c4ccccc34)C2c2ccccn2)[nH]n1 (centres undefined),active: 17.8 µM,
CCc1ccc(NCc2cc3cc4c(cc3n(CC(=O)Nc3ccccc3OC)c2=O)OCCO4)cc1,inactive,
CN(C)S(=O)(=O)c1ccc(N2CCCC2)c(C(=O)N2CCN(S(=O)(=O)c3ccc(F)c(F)c3)CC2)c1,active: 28.2 µM,
CCCn1ccc2c(OCC(=O)Nc3ccc(F)cc3F)cccc2c1=O,inactive,
Oc1ccc(/C=N/Nc2cc(N3CCOCC3)nc(N3CCOCC3)n2)cc1O,"inconclusive: 17.8 µM [activator, single point]",
CCCCOCCCNC(=O)C[C@@H]1C[C@@]2(C(=O)OCC)CCCC=C2N(CCC2=CCCCC2)C1=O,"inconclusive: 17.8 µM [activator, single point]",
CCCn1cc(S(=O)(=O)c2ccccc2)c(=O)c2cc(F)c(N3CCCC3)cc21,inactive,
C/C(=N\NC(=O)Cc1cccn1C)c1cccc2ccccc12,"inconclusive: 14.1 µM [activator, partial curve, poor fit]",
COCc1c(C(=O)OCC(=O)N2c3ccccc3NC(=O)C2(C)C)oc2ccccc12,,inconclusive: 59.9% [activator]
COc1cc(Cn2c3ccc(NC(=S)NCc4ccc(C)cc4)cc3c(=O)n2C)ccc1F,"inconclusive: 31.6 µM [activator, single point]",
CC(=O)N1CCN(c2cc(-c3ccco3)nc3cc(-c4ccccc4)nn23)CC1,"inconclusive: 15.8 µM [activator, partial curve, poor fit]",
Cc1ccccc1Cn1c(C)c(C(=O)NCc2cccc(Cl)c2)sc1=O,"inconclusive: 35.5 µM [activator, single point]",
O=C(COc1ccccc1)Nc1nc(-c2ccc(S(=O)(=O)N3CCOCC3)cc2)cs1,"inconclusive: 31.6 µM [activator, partial curve, poor fit]",
CC(C)Sc1ncc(Cl)c(C(=O)Nc2ccc(S(=O)(=O)N3CCCCC3C)cc2)n1 (centres undefined),"inconclusive: 31.6 µM [activator, partial curve, poor fit]",
Cn1c(CNc2nc(-c3ccccc3)cs2)nnc1SCC(=O)c1ccccc1,"inconclusive: 50.1 µM [activator, partial curve, poor fit]",
CCC(C(=O)NCc1ccccc1)n1ncn2c(cc3occc32)c1=O (centres undefined),inactive,
Cc1ccc(-c2[nH]ncc2/C=N/n2c(COc3ccccc3C)nc3ccccc3c2=O)cc1,"inconclusive: 14.1 µM [activator, partial curve]",
COC(=O)C1=C(C(=O)OC)[C@]2([C@H]3CC=CCN[C@@H](Cc4ccccc4)C(=O)N3Cc3ccccc3)C=C[C@H]1O2,active: 22.4 µM,
CCNC(=O)c1cc(Br)ccc1Cl,,inconclusive: 53.7% [activator]
